The source of these data is paper PMC12136788.

Some of the results follow.

Sequences and labels used below:
T1: UNK ZnF1-3 (human, UniProt Q9C0B0 31-174)
T1 sequence: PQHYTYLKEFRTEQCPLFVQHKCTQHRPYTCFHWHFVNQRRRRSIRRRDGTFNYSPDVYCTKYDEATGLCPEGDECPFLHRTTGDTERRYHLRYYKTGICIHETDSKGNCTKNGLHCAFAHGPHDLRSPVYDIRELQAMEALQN

B1: chr7:7679991:7679992:-_ENSG00000106399_ENST00000396682|hu_hu|hu_hu_hu_mus_False|38_48 (ssRNA)
RNA: GGGAGUUCUACAGUCCGACGAUCUGGGAUGAAUCUUUUCCAGCUUCCCCACGAAGCACACGGGCCGGUCGAUAUACUGUGGUAACAUGCCGGCGUUGAUGCGCGACUUGGGGAGCUGCAUUAUGUCCUCCAUGAUUCUGCCGCCAACAGAGGAUUGAGCAUCA
B2: chr3:176767854:176767855:-_ENSG00000177565_ENST00000430069|hu_hu|hu_hu_hu_mus_False|38_48 (ssRNA)
RNA: GGGAGUUCUACAGUCCGACGAUCGACAUCCUUGUUACUGGGCACGUCCUGCCCUCCUUCCCGUAUGCAGUGUCUAAGCACGAGCUGUGUAGAGCCACUGGUGCUGUUCUCACUGAGGUUCCAGAUUCUUGCCGUGGAGUCUCCCAACAGAGGAUUGAGCAUCA
B3: 99436588_99436708_523_CDS_ENSMUSG00000032468_ENSMUST00000035043|mouse|control|control (ssRNA)
RNA: GGGAGUUCUACAGUCCGACGAUCUAAGGCAGGGAUAAUAUGGCAGUCUAGUAGAGACUUGACAUUGUUUUCUGUGCCCAUCGCAAGACUCCCUAACACCACUGCACAUUCAGUUUUCAGCUCUGUACUUGAGGUUUCUUGUUGCAACAGAGGAUUGAGCAUCA
B4: chr12:39763582:39763583:-_ENSG00000139116_ENST00000544797|hu_mus|hu_hu_hu_mus_False|1_48 (ssRNA)
RNA: GGGAGUUCUACAGUCCGACGAUCCUCUAGGAACUGGGCAUUCACUUUGAAUUCAGGAGGGGGCAGCCCGUUUUUAAUCGCUGAGGUUUUUUUUUCUUCAAUACUCUUGAACAGGUGUCUAACAGCACGAGAGAUGAUACCCAGCAACAGAGGAUUGAGCAUCA
B5: chr3:32586495:32586496:-_ENSG00000144635_ENST00000273130|hu_mus|FALSE|FALSE (ssRNA)
RNA: GGGAGUUCUACAGUCCGACGAUCUUUCUGUAAGGAAUCCAAAGCAGUCCAAGGCUUUGACAUAUCAACAACCAACAUGACCAGAGUGUCCCUCAGAGAAAGGGCAUCCAGAGAGAACUUGAGUAGCCCUUUGUGGUACAGAUCCAACAGAGGAUUGAGCAUCA
B6: chr7:75932113:75932114:+_ENSG00000106211_ENST00000248553|hu_hu|hu_hu_hu_mus_False|48_98 (ssRNA)
RNA: GGGAGUUCUACAGUCCGACGAUCCUGCGACCACUCAUCCGGCAGCCGGGGCACCCCGAAAGCUUGAUCGAAGAGGCGGCUGUGUGCGUACCAGUCGUCCCGGAAUGGUUCCCAGCUCGGGCUCCGCAGCAGCGAGAAGGGCACCAACAGAGGAUUGAGCAUCA
B7: chr8:82586177:82586178:-_ENSG00000133731_ENST00000256108|hu_mus|FALSE|FALSE (ssRNA)
RNA: GGGAGUUCUACAGUCCGACGAUCCCCUUUCCUGCCGGUGUACAUCUUAUCUUCCACACAGCUGUACACAAUUCCAAACUCCAUCUCUUUAUUCACAAGGAAGCCAAUUGAAACAGCUACAAAGGGAAACCGAUGCACGAAGUUCAACAGAGGAUUGAGCAUCA
B8: 109982352_109983999_3291_CDS_ENSMUSG00000032479_ENSMUST00000165876|mouse|control|control (ssRNA)
RNA: GGGAGUUCUACAGUCCGACGAUCAGCCUCAGGGAUGACUGGCUCCUCCCCAGCGGGGGGGCCUGGACACGGAAGGGCCUCACUGCCACCGCCCUCAGUCUUCACGGCACCUCCUGCAGGCAAGUGGCCCACGUUAUCAAGGGACAACAGAGGAUUGAGCAUCA
B9: 155193506_155193626_1599_ncRNA_ENSMUSG00000029068_ENSMUST00000139066|mouse|control|control (ssRNA)
RNA: GGGAGUUCUACAGUCCGACGAUCUUAUAGGCUAAGGCCAAAGGGUAUACUAGCUUUAUCAACAAUGCAAAAACAAUUCAUGAGAAAACACGUCAUGAGGUUAUACACUGCCCAACAUAUCCAAUGGUACUGUGCAUACCCUAACAACAGAGGAUUGAGCAUCA
B10: 6378548_6378668_99_3pUTR_ENSG00000133398_ENST00000255764|human|control|control (ssRNA)
RNA: GGGAGUUCUACAGUCCGACGAUCCACGAACUUCUCCAGGUGCUCCUCUAGGUGGUCAAACUUCUCCGCCAUCGCCUCGGCCCGUCCCCGACCCACACAGCCUCAACCAGCAGCGCCGCAGGCGUGGCCCUACGCUCCCGCUUCCAACAGAGGAUUGAGCAUCA
B11: 78912229_78912349_2612_CDS_ENSMUSG00000022016_ENSMUST00000123853|mouse|control|control (ssRNA)
RNA: GGGAGUUCUACAGUCCGACGAUCAUUCUGGUUGCAUGGAUUGAGUUCUGAAGGUAGACAGGUACUUCUGAGACAAUCUACUUCCUCUGCACUGCGUUCUAUGGCAAUGUGUUCUUGGGUAGAGCCACCACUUGCUUUACUAGGCAACAGAGGAUUGAGCAUCA
B12: chr15:76911759:76911760:-_ENSMUSG00000033565_ENSMUST00000166610|mus_mus|motif|central (ssRNA)
RNA: GGGAGUUCUACAGUCCGACGAUCGAGGAACAUCCAGACAAACAUUUUCACUACAAGUCUCCUUAAAGGAAUCCAGCUUCGGGUAAUAUUCGCAGCAUAGAAAGCCCAGGCCACAGAGGCCUGCAAAACUGCAAACACCCUUCUCAACAGAGGAUUGAGCAUCA
B13: chr1:171510215:171510216:+_ENSG00000117523_ENST00000367742|hu_hu|motif|central (ssRNA)
RNA: GGGAGUUCUACAGUCCGACGAUCAGGAUAAUCUCGAGUGUGUCCCCUACCACCCCUGCCACGCCCUCCAUAAGAACCUCGGUAGCUUCGACCUCUGGAGUAAUAUUCACCUCGGCCUCGACCUCUGUAUCCUUGAUCUGGAAACAACAGAGGAUUGAGCAUCA
B14: 143143495_143143615_2184_3pUTR_ENSMUSG00000029578_ENSMUST00000036872|mouse|control|control (ssRNA)
RNA: GGGAGUUCUACAGUCCGACGAUCCCAAGUUCACCUGUCAGAAGAGAAGGCACAGAGAGCAGAAACUGCCCCUCUCCCUCUCAAGAUGCCCAUGGAGACUAAGACCCAGAACAACAGUCCCCCCGUGGAGGAAGCUAGUCCCAGCAACAGAGGAUUGAGCAUCA
B15: chr1:225611761:225611762:-_ENSG00000143815_ENST00000272163|hu_mus|hu_hu_hu_mus_True|48_88 (ssRNA)
RNA: GGGAGUUCUACAGUCCGACGAUCCCAGGCCAUCGGCCUCUGACCACUUCACCAUCGACAAACUUCCUACUUGGCAUUUUCUAAAAUUAACCUGCGCGCGCUCCGGCGGGAACUCCAGCCACUCCAGGACAGUCACCAGCAGCCCAACAGAGGAUUGAGCAUCA
B16: chr2:198267338:198267339:-_ENSG00000115524_ENST00000335508|hu_mus|motif|central (ssRNA)
RNA: GGGAGUUCUACAGUCCGACGAUCAAUGAUUUCAACCAAACUUCUGAGAUGUGGCAAGAUAGCACAGCCCAUGAGAAUGGCGGUCUGUUGUACAAUCUUAAUACCAGUGUGCCUCGCUUGCCAAGACUUCUUGCUUUUGCACACCAACAGAGGAUUGAGCAUCA
B17: chr7:140404665:140404666:+_ENSG00000090266_ENST00000247866|hu_hu|hu_hu_hu_mus_False|28_58 (ssRNA)
RNA: GGGAGUUCUACAGUCCGACGAUCUGCUCCUACUCGUCCAGAGAGUUUACAGUGUCAGUCCUCGUCAUCAGGAGGGAUACCUAAUUCUUCAUCUGUCCACUGUGAAGGAUCAGGAUAUGAAAAGUGACCCAGCACAGCAUCCGACAACAGAGGAUUGAGCAUCA
B18: 55528378_55529092_5178_CDS_ENSG00000115355_ENST00000336838|human|control|control (ssRNA)
RNA: GGGAGUUCUACAGUCCGACGAUCACCUUGUGGACUUAUGUCUUCAAAGGAUGUAGUAUCUUUAUUAUUAACCAACUGCUUGGAUCUGAAGCCUGCAGAAGAGUUGACAGUUGAAAAGUUGAUGGCUGUAGUAGAGAAGGCCAUCAACAGAGGAUUGAGCAUCA
B19: 54934717_54934837_312_5pUTR_ENSG00000187735_ENST00000521604|human|control|control (ssRNA)
RNA: GGGAGUUCUACAGUCCGACGAUCCUGGCAAGGGGAAGUGGGCGAAGCUGGAGCGGAAGACACAGCAGGAGCGACCCCCGGCGCGCAGCAACCCCCACCACCGCAGGCCCGGGCCUAGGCCCCCUUCCUUACGAACGAAGCCCGCAACAGAGGAUUGAGCAUCA
B20: 103192919_103193039_1585_3pUTR_ENSG00000089902_ENST00000570597|human|control|control (ssRNA)
RNA: GGGAGUUCUACAGUCCGACGAUCCUGGGAAGUGGCGCCAACAUGGAGGAACGAGCAAAGAAUUAAGGCAGAUGGAGCACAGGACUGGAAGUAUAUGCCUUUUUUGGUAAUAGCUGCUUGUCCAGAGAGAUGUGAUGCAGAUGGCAACAGAGGAUUGAGCAUCA
B21: chr8:104063288:104063289:+_ENSG00000155097_ENST00000518738|hu_mus|FALSE|FALSE (ssRNA)
RNA: GGGAGUUCUACAGUCCGACGAUCUAUGUAAGUAACCAAGUCAACUCCGCUGGCCAGCAAGUUCUCCUGAACUUUAUCUUUGCUGUCCUCCAGCACAUCAGCCAUGUACUGAGCCACUUUCUUGACCACACCUUCUACAAAUGCCAACAGAGGAUUGAGCAUCA
B22: chr16:94664741:94664742:+_ENSMUSG00000040785_ENSMUST00000117648|mus_hu|mus_mus_mus_hu_False|18_98 (ssRNA)
RNA: GGGAGUUCUACAGUCCGACGAUCUGGUACUGAUCUUUGCAUUGGAUAUUCAGGAGAAAGGCUGGCCAAGGGUGUAUAUAUGCUGGUGUACUGGGGCAAACCUGGUAACACGUUUAUGUACGCUGGUGGUGUCUGGGUGAUAUCCAACAGAGGAUUGAGCAUCA

The target in the assay is T1, UNK ZnF1-3. The assay is described as follows: nsRBNS (natural sequence RNA bind-n-seq); RBNS binding buffer (assumed for nsRBNS): 25 mM Tris pH 7.5, 150 mM KCl, 3 mM MgCl2, 0.01% Triton X-100, 500 ug/ml BSA, 20 U/ml SUPERase-In, 4 C; UNK is unkempt and MSI1 is Musashi-1; names of the RNAs are library labels; protein concentration not given here; high values mean tight binding.
As for B1, the binding signal came to 0.406 enrichment R.
Next, B2: 0.523 enrichment R; B3: 0.656 enrichment R.
Next, B4: 1.69 enrichment R.
On to B5, for which the binding signal amounted to 0.996 enrichment R.
Molecule B6 had a binding signal of 0.968 enrichment R.
Next, B7: 1.06 enrichment R.
Next, B8: 0.759 enrichment R; B9: 0.558 enrichment R.
For B10 the value was 1.03 enrichment R; for B11, 1.05 enrichment R.
In turn, B12 registered a binding signal of 1.04 enrichment R.
B13 displayed a binding signal of 0.73 enrichment R.
Next, B14: 0.941 enrichment R; B15: 1.49 enrichment R.
Next, B16: 0.597 enrichment R; B17: 1.11 enrichment R; B18: 1.69 enrichment R.
For B19 the value was 0.888 enrichment R; for B20, 1.76 enrichment R; for B21, 0.846 enrichment R.
As for B22, the binding signal was 0.842 enrichment R.
